Experimental data from the RNAGym collection of RNA variant scans (doi:10.1073/pnas.2313332121).
Variants at the background level are over-represented here.

B1: TPR 5TU (parent)
chain: GGAUCUUCUCGAUCUAACAAAAAAGACAAAUCUGCCACAAAGCUUGAGAGCAUCUUCGGAUGCAGAGGCGGCAGCCUUCGGUGGCGCGAUAGCGCCAACGUUCUCAACUAUGACACGCAAAACGCGUGCUCCGUUGAAUGGAGUUUAUCAUG

Variants of: B1
Assay: polymerase ribozyme fitness, log enrichment relative to wild type (log ratio); higher = more active; in vitro selection for triplet polymerase activity
Method in brief: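 Only genotypes with ≥10 input reads and ≥1 read per output were kept after Illumina sequencing of input and output libraries. These libraries were PCR-built, transcribed mutants of each subunit of a heterodimeric triplet polymerase ribozyme, each put through one triplicate in vitro selection round with frozen incubation at −7 °C, gel excision of extended constructs, streptavidin-bead capture and RT-PCR. Fitness is a logarithmic ratio of genotype enrichment to wild-type enrichment, from inverse-variance-weighted replicate averages, with the logarithm in base 2.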

| Variant | polymerase ribozyme fitness (log ratio) |
| --- | --- |
| A66C G80C C87U A107C C116A U145C | ≤ -4.2 |
| A64C C69G U144G | ≤ -4.2 |
| A60C U82G U139A | ≤ -4.2 |
| A60U U101A U151C | ≤ -4.2 |
| U61A G67A G94C U145G A147U | ≤ -4.2 |
| A60G G84A C87U C93A C125G | ≤ -4.2 |
| A60U C76G G84U | ≤ -4.2 |
| G62A G100A G126U U148C | ≤ -4.2 |
| A64C G88U A89G G117C C131G | ≤ -4.2 |
| C69A C76U C79A C87A A142C G152C | ≤ -4.2 |
| G68C A89G A120G A147U U148G | ≤ -4.2 |
| G62C C96A G124A A150G | ≤ -4.2 |
| C69G C93G | -3.97 |
| U61G A91U C96G G141C | ≤ -4.2 |
| C69A G140U | -3.21 |
| G65C G88U A106U G140C | ≤ -4.2 |
| C63G C76U A91U G141U | ≤ -4.2 |
| C63U C85A C108G A110G | ≤ -4.2 |
| G65C G70A G86A U90G C95A G143U | ≤ -4.2 |
| G62C A115C | -1.06 |
| C63G U102G C105U | ≤ -4.2 |
| C69G C85U A91G C118A C129G U144A | ≤ -4.2 |
| G67A G68C A89C | ≤ -4.2 |
| U61A U77A C87A U101A A119U G126C | ≤ -4.2 |

| Variant | polymerase ribozyme fitness (log ratio) |
| --- | --- |
| G62A C63G C105G | ≤ -4.2 |
| A64U G92C | ≤ -4.2 |
| A60G G70A C108G | ≤ -4.2 |
| A60G A115G U144C U146A A150U | -3.85 |
| G65C C99G | ≤ -4.2 |
| G67C G84C C87G A91C A147C | ≤ -4.2 |
| A60C A64G G80A C99G | ≤ -4.2 |
| G68C G83A | ≤ -4.2 |
| A60C C76A G92U C95A U145G C149G | ≤ -4.2 |
| A64G C99A G143A | ≤ -4.2 |
| A66C C87G C118A G136C G143A | ≤ -4.2 |
| C69A C118G | -2.21 |
| A64U C96U C105G G141A A147G | ≤ -4.2 |
| A60U C85U G88U C99U | ≤ -4.2 |
| G68A A89G U90A C93U | ≤ -4.2 |
| C63U C75U C76U G80A U82A C108G C114U U148C | ≤ -4.2 |
| G62A G70A G71A G80C C87U C108U | ≤ -4.2 |
| C63U C69A C87A G140C | ≤ -4.2 |
| A60C C103A | ≤ -4.2 |
| G67C C93G C99G A137U U146A | ≤ -4.2 |
| G68U C95U C96U A113C G124U | ≤ -4.2 |
| U61A G80C | ≤ -4.2 |
| G68C C99G A106G C129U | ≤ -4.2 |
| A60G C87G U135A | ≤ -4.2 |

| Variant | polymerase ribozyme fitness (log ratio) |
| --- | --- |
| A66G C105U | -3.63 |
| G68A C85G C118G U146G U148G | ≤ -4.2 |
| U61A C85U A97C A120G | -3.26 |
| A66C G81U G84A G141C | ≤ -4.2 |
| A66U A115C G124A | ≤ -4.2 |
| A60U C85U C87A G143A | ≤ -4.2 |
| U61A C87U G92A A106G A122U | -2.84 |
| A64G G88U U101G C103G U146G | ≤ -4.2 |
| A66G U82G C93A | ≤ -4.2 |
| A60C C85U C87U C93G | ≤ -4.2 |
| U61G U82C A89U A120U U135A | -2.52 |
| G62A G141U | 1.11 |
| C69A G71U | -0.808 |
| A60U C79U A98G C103A | ≤ -4.2 |
| A66G G92C C95A C103U C108G U151C | ≤ -4.2 |
| A66C C85G | -4.16 |
| A60U G136C U139G | -3.71 |
| G68A G83A C95A A110G | ≤ -4.2 |
| G65C C76G U78C G80C C95A C131A | ≤ -4.2 |
| A60C G68C G71U C114G C123U U146G | ≤ -4.2 |
| A60G A89G | -0.778 |
| C63U G94C C132U G141A | ≤ -4.2 |
| A66U G88A U145G U148C A150C | ≤ -4.2 |
| U61A A147U | -0.329 |

| Variant | polymerase ribozyme fitness (log ratio) |
| --- | --- |
| G62C C75U G84U C95A C99A | ≤ -4.2 |
| A66C C93U C103A A113U C116G A142U A150C | ≤ -4.2 |
| A66G C87A G92A U151G | ≤ -4.2 |
| G62A G88A G126U | ≤ -4.2 |
| G62A G65A G117U U144A | -3.79 |
| A64C C87G C99A U151A | ≤ -4.2 |
| G62C G94C | -2.03 |
| G67C U139G | ≤ -4.2 |
| C69A C96U A121C U127G A147U | ≤ -4.2 |
| C63U A64G G67C A97C A110U G126A A150C | ≤ -4.2 |
| A60U C93U | -3.16 |
| G68A G94U C125G A142C | ≤ -4.2 |
| G62A C75A A91U U111G | ≤ -4.2 |
| A66G C85A A115G A121C A138U U144A | ≤ -4.2 |
| U61A C79A G133A | ≤ -4.2 |
| G62C G71U A150G | ≤ -4.2 |
| A66U A91U U139A | ≤ -4.2 |
| A64U G92A C95A U101C C105U C123A G124C U145G U148G | ≤ -4.2 |
| A64U G83C G143C | ≤ -4.2 |
| G65U A97G C99A | ≤ -4.2 |
| G67C G83A | ≤ -4.2 |
| U61G C96U | -1.29 |
| A60C G84A C87G C95A C132U | ≤ -4.2 |
| A60C A73U U78G C149U | ≤ -4.2 |

| Variant | polymerase ribozyme fitness (log ratio) |
| --- | --- |
| A66G U90C G92A G117U G140A | ≤ -4.2 |
| A64C C85A | ≤ -4.2 |
| G68C U78G G84A G152U | ≤ -4.2 |
| A60G U77C G80U A91C C99U C125U G141U | ≤ -4.2 |
| G68A C69G G80A U104G | ≤ -4.2 |
| A64U C105G U148C | ≤ -4.2 |
| G62U U90C | ≤ -4.2 |
| A66G C85G | ≤ -4.2 |
| A60U G84U U102G | -4.18 |
| G68A C72U | -4.15 |
| A64G G80A A91G | ≤ -4.2 |
| C69A C93G C96A A98G | ≤ -4.2 |
| G67C G88C C116G A122U G128U U144A | ≤ -4.2 |
| C69A C76U A98U C125U | -1.9 |
| G68C U78C G86A | ≤ -4.2 |
| C63G A64C C72U C95U C105G A120U G141U | ≤ -4.2 |
| A64C G88C C99U | ≤ -4.2 |
| A60G C87A G140C G141C A142C | ≤ -4.2 |
| G65C C93U U148G | ≤ -4.2 |
| G68A C93U U104C A106G | ≤ -4.2 |
| G62U C99A A121C | ≤ -4.2 |
| G62U U102A | -1.64 |
| A60G G74U G92U A142U | ≤ -4.2 |
| A60C A73G C96U U101G | -3.45 |

| Variant | polymerase ribozyme fitness (log ratio) |
| --- | --- |
| A60G G128U | -2.75 |
| A60G U134G | -2.14 |
| G65C G84A U90G U101G G124U G136U G140C | ≤ -4.2 |
| A64G C69A G71A U90A C96U A115C U144G | ≤ -4.2 |
| U61A G94A | -2.08 |
| G67U A89C C96G A106C A119C | ≤ -4.2 |
| U61A A113C C125U | ≤ -4.2 |
| U61G C99U | -2.77 |
| A64G C69A C85G G100U U145A | ≤ -4.2 |
| A64G A66C | ≤ -4.2 |
| A66G C85G C93G C114U C123A U127G | ≤ -4.2 |
| U61G A66C A150G | ≤ -4.2 |
| A60G U90G U145A | ≤ -4.2 |
| A64U C96A U111C C114G A147U | ≤ -4.2 |
| A66G G84U G152C | ≤ -4.2 |
| U61C G152A | ≤ -4.2 |
| G62A A66G G70A C125U | ≤ -4.2 |
| G67A C69A | ≤ -4.2 |
| U61A G74U C75U A121C | ≤ -4.2 |
| A64C G83C A89U U134A G141A | ≤ -4.2 |
| A64C G65U G68U G80A C93A C103U C125U | ≤ -4.2 |
| A60C A91U C118A | ≤ -4.2 |
| A60G A73G C75A G86A A120U U135G G141C | ≤ -4.2 |
| G68U G83A A98G G124A G140C | ≤ -4.2 |

| Variant | polymerase ribozyme fitness (log ratio) |
| --- | --- |
| G68U C76A C85U A107G | ≤ -4.2 |
| C63U A91U C93G U139G | ≤ -4.2 |
| C69A G70A | -4.19 |
| A66C G100A A106G | ≤ -4.2 |
| G68U C85A G143A U145A A147U | ≤ -4.2 |
| U61A C105U U134G U139G | -4.18 |
| G67C G84A U139A G140U | ≤ -4.2 |
| A60C G88C | ≤ -4.2 |
| U61A C75G | -3.89 |
| A66G G88C G92U C99G G141U | ≤ -4.2 |
| G67C C79A C95U C114A G136A | ≤ -4.2 |
| G67C G88U A106G A121C | ≤ -4.2 |
| A60G A66U C93U A98G G128A | ≤ -4.2 |
| G68A C76A C85U A106G A120C G128U | ≤ -4.2 |
| G65C U90C | ≤ -4.2 |
| A64U A73C C87U C93U A137G A138C | ≤ -4.2 |
| G68A C96U C99A | ≤ -4.2 |
| G67C C87A G100A | ≤ -4.2 |
| G68C U82G G133U U134A A138U | ≤ -4.2 |
| A66G G84A C108G | ≤ -4.2 |
| G62C C69U G92A G128A G141A | ≤ -4.2 |
| G67C G80C G92A C103A C118G G133A | ≤ -4.2 |
| A60G A73C C85G C129A C132A | ≤ -4.2 |
